{"source": "PubChem BioAssay (NCATS)", "note": "This list was built around the results that the source calls inconclusive (neither active nor inactive); the mix of calls is not that of the screen. No potency is given beside an inconclusive call; the fits are too rough. The source made the active and inactive calls. Calls follow the shape of the dose curve; as a rule, active = well fitted inhibition curve with a large enough effect; inconclusive = small, poorly fitted or top-dose-only effect, or effect the other way; inactive = flat fitted curve, though single readings scatter. Potency is read from the fitted curve at half-maximal effect; tags tell the direction and shape of the fitted curve.", "data": [{"test": "Quantitative high throughput screen for delayed death inhibitors of the malarial parasite plastid, 48 hour incubation (AID 488752); also: nearly all actives have a fitted effect of over 65% in size", "details": "Plasmodium falciparum growth; series mostly up to 28.7 µM", "description": "NIH Molecular Libraries Probe Production Network [MLPCN]\nNIH Chemical Genomics Center [NCGC]\nAssay Provider: David Fidock and Eric Ekland, Columbia University\nThe goal of this screen is to discover new antimalarial compounds that act by inhibiting the development of the apicoplast in the malarial parasite Plasmodium falciparum. The biochemical processes that make this organelle essential for erythrocytic stage parasites are not well understood. However, antibiotics, such as azithromycin and tetracycline, which target the apicoplast translational machinery, have a potent antimalarial effect.\nWe have developed a cell-based assay that measures parasite growth based on the expression of an integrated copy of a firefly luciferase reporter. To detect small molecules that cause this 'delayed death' phenotype, erythrocytes infected with the luciferase-expressing parasites were incubated with compounds for either one or two generations, corresponding to 48 and 96 hours, respectively. Compounds that inhibit parasite growth in the second generation, but not the first, should be enriched in antimalarials that target the apicoplast. Growth inhibition is detected by a decrease in luciferase activity\nFour microliters of culture medium (RPMI 1640 with 0.5% w/v Albumax (GIBCO), 24 mM sodium bicarbonate and 10 ug/mL gentamycin) were dispensed by a Multi-drop Combi into white solid 1536-well plates (Grenier) and 23 nL compound was added by a pin tool. Four microliters of infected erythrocytes (2% hematocrit, 0.1% parasitemia final concentration) in culture medium were dispensed and the plates incubated for 48 hours at 37 C in 5% CO2. Two microliters of luciferase detection reagent was added and luminescence was detected by a ViewLux (PerkinElmer) reader", "values": [{"molecule": "CC(C)(CO)Cc1cc(C(C)(C)C)c(O)c(C(C)(C)C)c1", "Potency": "inconclusive [inhibitor, single point]"}, {"molecule": "CC(C)NC[C@@H](O)COc1cccc2ccccc12", "Potency": "inconclusive [inhibitor, single point]"}, {"molecule": "N#C/C(=C\\c1ccc(O)c(O)c1)C(=O)NCc1ccccc1", "Potency": "inconclusive [inhibitor, single point]"}, {"molecule": "NS(=O)(=O)c1cccc2c1c([N+](=O)[O-])cc1nc(O)c(O)nc12", "Potency": "inactive"}, {"molecule": "CCCOC(=O)c1c(-c2ccccc2)nc(CC)c(C(=O)SCC)c1CCC", "Potency": "inconclusive [inhibitor, partial curve, poor fit]"}, {"molecule": "COc1cccc(C(=O)NCCN2CCN(c3ccc(Cl)cc3)CC2)c1", "Potency": "inconclusive [activator, full curve, poor fit]"}, {"molecule": "Cn1cnc2c(NCc3ccccc3)nc(NCCO)nc21", "Potency": "inconclusive [inhibitor, partial curve, poor fit]"}, {"molecule": "O=C(O)CCC(=O)N1CCCC1C(=O)O", "note": "(stereo not given)", "Potency": "inconclusive [activator, full curve, poor fit]"}, {"molecule": "NOCC(=O)O", "Potency": "inconclusive [inhibitor, single point]"}, {"molecule": "CC(=O)OCC1=C(C(=O)O)N2C(=O)[C@@H](NC(=O)CSc3ccncc3)[C@H]2SC1", "Potency": "inactive"}, {"molecule": "NC(N)=NCc1cccc(I)c1", "Potency": "inactive"}, {"molecule": "O=C(Nc1ccccc1)c1cc([N+](=O)[O-])ccc1Cl", "Potency": "inconclusive [activator, partial curve]"}, {"molecule": "COc1cc2nc(N3CCN(C(=O)OCc4ccccc4)C(C(=O)NC(C)(C)C)C3)nc(N)c2cc1OC", "note": "(stereo not given)", "Potency": "inconclusive [inhibitor, single point]"}, {"molecule": "COc1cc(OC)c(/C=C2/C(=O)Nc3ccccc32)c(OC)c1", "Potency": "inactive"}, {"molecule": "COc1cccc2c1[C@@H]1CN(CCCCn3c(=O)[nH]c4c(sc5ncc(-c6ccccc6)nc54)c3=O)C[C@@H]1CO2", "Potency": "inconclusive [inhibitor, single point]"}, {"molecule": "C[C@]12CC[C@@H]3c4ccc(O)cc4CC[C@H]3[C@@H]1CCC2=O", "Potency": "inconclusive [inhibitor, single point]"}, {"molecule": "O=C(O)c1cc(=O)c2ccccc2[nH]1", "Potency": "inconclusive [activator, partial curve, poor fit]"}, {"molecule": "NC(C(=O)N[C@@H]1C(=O)N2C(C(=O)O)=C(Cl)CS[C@H]12)c1ccccc1", "note": "(stereo not given in full)", "Potency": "inactive"}, {"molecule": "CO[C@@]1(NC(=O)CSCC#N)C(=O)N2C(C(=O)O)=C(CSc3nnnn3C)CS[C@@H]21", "Potency": "inactive"}, {"molecule": "CCCCCCCCCC[Si](C)(C)CCC(=O)NC(Cc1ccc(C)cc1)c1ccccc1", "note": "(stereo not given)", "Potency": "inactive"}, {"molecule": "CCC1(O)CC2CN(CCc3c([nH]c4ccccc34)[C@@](C(=O)OC)(c3cc4c(cc3OC)N(C=O)C3[C@]45CCN4CC=C[C@@](CC)([C@@H](OC(C)=O)[C@]3(O)C(=O)OC)[C@H]45)C2)C1", "note": "(stereo not given in full)", "Potency": "active: 0.131 µM"}, {"molecule": "O=[N+]([O-])c1cccc2cn[nH]c12", "Potency": "inactive"}, {"molecule": "N#CC(=C(\\N)Sc1ccccc1N)/C(C#N)=C(/N)Sc1ccccc1N", "Potency": "inconclusive [inhibitor, single point]"}, {"molecule": "O=C(O)C1CCCN(CCC=C(c2ccccc2)c2ccccc2)C1", "note": "(stereo not given)", "Potency": "inactive"}, {"molecule": "O=S(=O)(NCCNC/C=C/c1ccc(Br)cc1)c1cccc2cnccc12", "Potency": "inconclusive [inhibitor, single point]"}, {"molecule": "NC(=Nc1ccccc1)NC(=O)c1nc(Cl)c(N)nc1N", "Potency": "inconclusive [activator, partial curve]"}, {"molecule": "O=C1Cc2c([nH]c3ccc(Br)cc23)-c2ccccc2N1", "Potency": "inconclusive [activator, full curve]"}, {"molecule": "CCN(CC)CCOCCOC(=O)C1(c2ccccc2)CCCC1", "Potency": "inactive"}, {"molecule": "CNC(=O)c1cc2c(cn1)[nH]c1ccccc12", "Potency": "inconclusive [activator, partial curve]"}, {"molecule": "CN1CCN(c2nc3cc(C(F)(F)F)ccc3n3cccc23)CC1", "Potency": "active: 8.28 µM"}, {"molecule": "CN(C)CCCN1c2ccccc2Sc2ccc(C(F)(F)F)cc21", "Potency": "inconclusive [inhibitor, single point]"}, {"molecule": "COC(=O)C1=C(C)NC(C)=C([N+](=O)[O-])C1c1ccccc1C(F)(F)F", "note": "(stereo not given)", "Potency": "inconclusive [inhibitor, single point]"}, {"molecule": "CN(C)C/C=C(/c1ccc(Br)cc1)c1cccnc1", "Potency": "active: 13.1 µM"}, {"molecule": "C=CCN1CCc2c(cc(O)c(O)c2Br)[C@@H](c2ccccc2)C1", "Potency": "active: 1.85 µM"}, {"molecule": "CC#CCOC(=O)c1c(C)nc2sc3c(c2c1N)CCC(O)C3", "note": "(stereo not given)", "Potency": "inconclusive [activator, full curve]"}, {"molecule": "CCCN(CC1CC1)c1nc(C)nc(Nc2c(Cl)cc(Cl)cc2Cl)c1Cl", "Potency": "active: 2.62 µM"}, {"molecule": "O=C(/C=C/c1ccc(O)c(O)c1)OCCc1ccccc1", "Potency": "inconclusive [inhibitor, single point]"}, {"molecule": "CCN(CC)CCCCCCCCOC(=O)c1cc(OC)c(OC)c(OC)c1", "Potency": "inconclusive [inhibitor, single point]"}, {"molecule": "CSc1ccc(C(=O)c2[nH]c(=O)[nH]c2C)cc1", "Potency": "inactive"}, {"molecule": "C[C@H](NC(=O)/C(C#N)=C/c1ccc(O)c(O)c1)c1ccccc1", "Potency": "inconclusive [inhibitor, single point]"}]}]}
